We go through 39 molecules from PubChem BioAssay (NCATS).

Structures are written as SMILES. This is one part of the list. The main result of the screen is listed elsewhere. These columns were measured beside it and carry no call. The list favours compounds with an active or inconclusive main result. The note in brackets gives the kind of curve behind each potency; many fits are weak.
Tags give direction and shape of the fitted curve.

The first test can be described thus: qHTS Assay for Lipid Storage Modulators (AID 1519). The settings on record: Drosophila S3 cells, BODIPY lipid droplet/cell ratio, laser cytometry; measured here: lipid (BODIPY) channel AC50; cells loaded with oleic acid. The method in brief:
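Cells seeded at 5,000 per well were treated with compounds over a concentration series and loaded with oleic acid (400 uM, as added). Lipid droplet fluorescence (488 nm excitation, 500-530 nm channel) was read by laser-scanning cytometry and normalized to 20 uM Triacsin C.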
For orientation: In qHTS, concentration-response curves come from the screen itself.
The AC50 is the concentration giving half of the maximal activity seen. With `O=C(Oc1ccccc1)N1CCC[C@@]2(CCN(Cc3ccccc3)C2)C1`, the AC50 is 0.00562 µM [rising, full curve, poor fit].

For `CC(C)CCCC1(C)C=Cc2c(O)c3c(c(CCC(C)C)c2O1)OC12C(CC4CC1C(C)(C)OC2(CCC(C)C(=O)O)C4O)C3=O` (stereo not drawn), the AC50 was 22.4 µM [falling, single point]. Turning to `COc1ccc2[nH]c3c(c2c1)CCN=C3C`, the half-maximal activity concentration (AC50) was 14.1 µM [falling, single point]. In the case of `N#CC(C#N)=Cc1ccc([N+](=O)[O-])c(O)c1`, the AC50 was 22.4 µM [falling, partial curve, poor fit].

The same test, now with this note: Drosophila S3 cells, BODIPY lipid droplet/cell ratio, laser cytometry; measured here: lipid channel max response; cells loaded with oleic acid.
Take `CC(C)=CCCC1(C)C=Cc2c(O)c3c(c(CC=C(C)C)c2O1)OC12C(CC4CC1C(C)(C)OC2(C/C=C(/C)C(=O)O)C4O)C3=O` (stereo not drawn): the max response is -40.7%. In the case of `C[C@@H](CO)NC(=O)[C@@H]1C=C2c3cccc4[nH]cc(c34)C[C@H]2N(C)C1`, the max response stood at 88.4%. Consider `O=C(NC(=O)c1c(F)cccc1F)Nc1ccc(Cl)cc1`, for which the max response turned out to be 25.9%. The same measure, in the same setting: to `COc1ccc2c(c1O)-c1c(OC)c(OC)cc3c1[C@@H](C2)N(C)CC3` belongs 47.2%. As to `CNNC`, the max response was determined as 30.3%.

`O=c1cccc2n1CC1CNCC2C1` (stereo not drawn): the max response came out at 17.3%. With `CNC(C)C1CC[C@H](N)[C@@H](OC2C(N)C[C@H](N)[C@@H](OC3OC[C@](C)(O)C(NC)[C@H]3O)C2O)O1` (stereo partly drawn), the max response was determined as 39.1%.

Take `CC(=O)Nc1cc([As](=O)(O)O)ccc1O`: the max response came out at 43.2%. Turning to `O=C(c1ccco1)N1CCC2(CC1)CN(Cc1ccncc1)C2`, the max response stood at 32.6%. As for `CN1C2CCC1CC(NC(=O)c1nn(C)c3ccccc13)C2` (stereo not drawn), the max response worked out at 40.5%. Still for that read-out and setting: then `C[N+]1(C)C2CC(OC(=O)C(CO)c3ccccc3)CC1C1OC12` (stereo not drawn), with 31.3%; and `COc1ccc(NC(=O)N2CC[C@@]3(CCCN(C(=O)Oc4ccccc4)C3)C2)cc1`, with 34.2%. Regarding `CC(=O)Oc1ccc(/C=C/c2cc(OC(C)=O)cc(OC(C)=O)c2)cc1`, the max response stood at 8.45%. For the molecule `CC[C@@]1(O)CC(O)c2c(cc3c(c2O)C(=O)c2c(O)ccc(O)c2C3=O)C1C(=O)OC` (stereo partly drawn), the max response was -93.2%. As to `CN1CC[C@@]2(C)c3cc(O)ccc3N(C)[C@@H]12`, the max response is 44.3%. As to `C/C=C1/C[C@@H](C)[C@](O)(CO)C(=O)OCC2=CCN3CC[C@@H](OC1=O)C23` (stereo partly drawn), the max response was 35%. Turning to `O=C(Oc1ccccc1)N1CCC[C@@]2(CCN(Cc3cc(C(F)(F)F)cc(C(F)(F)F)c3)C2)C1`, the max response came to 32.6%. `CC1CC(Cl)CCC1C(=O)OC(C)(C)C` (stereo not drawn): the max response stood at 31.3%.

For the molecule `CC(=O)OCC1=C(C(=O)O)N2C(=O)C(NC(=O)CCCC(N)C(=O)O)C2SC1` (stereo not drawn), the max response amounted to 31.8%. Still for that read-out and setting: to `C[C@H]1CCCC=CC2C[C@H](O)C[C@@H]2[C@H](O)/C=C\C(=O)O1` (stereo partly drawn) belongs 30.1%.

On to `CCC1C2CC3C4N(C)c5ccccc5[C@]45CC(C2C5O)N3C1O` (stereo partly drawn), for which the max response was 44.5%. As to `COc1ccc(C(=O)O)cc1OC`, the max response stood at 30.8%. Same read-out and setting: to `CC[C@@H]1CN2CCc3cc(OC)c(OC)cc3[C@H]2C[C@@H]1C[C@H]1NCCc2cc(OC)c(OC)cc21` belongs -44.9%; to `COc1ccc(CC2NC[C@H](O)[C@H]2OC(C)=O)cc1` (stereo partly drawn), -61.1%; to `CN1CC[C@@]2(c3cccc(O)c3)Cc3nc4ccccc4cc3C[C@H]2C1`, 7.28%. For `CC(=O)Oc1ccc(Cl)c2cccnc12`, the max response is -38.2%. For `CN(CCC(N)CC(=O)NC1C=CC(n2ccc(N)nc2=O)OC1C(=O)O)C(=N)N` (stereo not drawn), the max response was 47.9%. Take `O=[N+]([O-])c1ccc(O)c([N+](=O)[O-])c1`: the max response was -35.8%. With `CCCCC/C=C\C/C=C\C/C=C\C/C=C\CCCC(=O)Nc1ccc(O)cc1`, the max response stood at 33.2%. As for `C[C@H]1O[C@H](O[C@H]2[C@H](O)[C@@H](O)[C@@H](O)[C@H](O)[C@@H]2O)[C@@H](N)C[C@@H]1NC(=N)C(=O)O`, the max response worked out at 43.4%. Still for that read-out and setting: to `CCCN(C/C=C\I)[C@@H]1CCc2ccc(O)cc2C1` belongs 37%; to `CC(C)CC1C(=O)N2CCCC2C2(O)O[C@@](NC(=O)C3C=C4c5cccc6[nH]c(Br)c(c56)CC4N(C)C3)(C(C)C)C(=O)N12` (stereo partly drawn), -37.6%. The same measure, in the same setting: then `CN1CCN(C(=O)OC2c3nccnc3C(=O)N2c2ccc(Cl)cn2)CC1` (stereo not drawn), with 31.9%; and `COc1ccc(C[C@H]2NC[C@H](O)[C@@H]2OC(C)=O)cc1`, with -10.2%; and `O=C(Oc1ccccc1)N1CCC[C@@]2(CCN(Cc3ccccc3)C2)C1`, with 25.1%. On the same count and under the same terms, to `CC(C)CCCC1(C)C=Cc2c(O)c3c(c(CCC(C)C)c2O1)OC12C(CC4CC1C(C)(C)OC2(CCC(C)C(=O)O)C4O)C3=O` (stereo not drawn) belongs -60.7%. In the case of `CCOC(OCC)P(=O)(O)CCCN`, the max response is -24.3%. Consider `COc1ccc2[nH]c3c(c2c1)CCN=C3C`, for which the max response is -66.4%. As to `N#CC(C#N)=Cc1ccc([N+](=O)[O-])c(O)c1`, the max response was found to be 44.8%.
